First the molecules themselves.
B1: GPR68, Q15743 (parent)
chain: MGNITADNSSMSCTIDHTIHQTLAPVVYVTVLVVGFPANCLSLYFGYLQIKARNELGVYLCNLTVADLFYICSLPFWLQYVLQHDNWSHGDLSCQVCGILLYENIYISVGFLCCISVDRYLAVAHPFRFHQFRTLKAAVGVSVVIWAKELLTSIYFLMHEEVIEDENQHRVCFEHYPIQAWQRAINYYRFLVGFLFPICLLLASYQGILRAVRRSHGTQKSRKDQIQRLVLSTVVIFLACFLPYHVLLLVRSVWEASCDFAKGVFNAYHFSLLLTSFNCVADPVLYCFVSETTHRDLARLRGACLAFLTCSRTGRAREAYPLGAPEASGKSGAQGEEPELLTKLHPAFQTPNSPGSGGFPTGRLA

Variants of B1 are the subject of data set [1]. The experiment in a line: cAMP reporter score (Enrich2 score, wild type = 0); higher = more signal; HEK293T, FACS bins.
The variants in data set [2] derive from B1. The experiment in a line: surface expression score (Enrich2 score, wild type = 0); higher = more signal; HEK293T, FACS bins.

Scores with a large standard error are left out. Two further conditions of the source, in which the scores hardly spread, are not listed. In variant names, del marks residues removed and ins residues inserted between the two positions. For part of these data: The concentration of ogerin is not given here.

Turning to L209K, the cAMP reporter score in data set [1] (pH 5.5) was -1.39; in data set [1] (pH 6), -0.634; in data set [1] (pH 6, modulator: ogerin), -1.22; in data set [1] (pH 6.5, modulator: ogerin) it was -1.23. Further, in data set [2], the surface expression score came out at 0.965.

As for L209R, the cAMP reporter score in data set [1] (pH 5.5) was -0.159; in data set [1] (pH 6) it was -1.54; in data set [1] (pH 6, modulator: ogerin), -1.12; in data set [1] (pH 6.5, modulator: ogerin) it was -0.42. Also, in data set [2], the surface expression score worked out at 1.65.

With L209V, the cAMP reporter score in data set [1] (pH 5.5) was -0.105; in data set [1] (pH 6), -0.724; in data set [1] (pH 6, modulator: ogerin), -0.676; in data set [1] (pH 6.5, modulator: ogerin), -1.31. Also, the surface expression score in data set [2] is 0.315.

Regarding L209D, the cAMP reporter score in data set [1] (pH 5.5) was -0.714; in data set [1] (pH 6), -1.13; in data set [1] (pH 6, modulator: ogerin), -1.22; in data set [1] (pH 6.5, modulator: ogerin) it was -0.107. Further, the surface expression score in data set [2] came to 0.751.

Consider L209H, for which the cAMP reporter score was -1.25 in data set [1] (pH 5.5); -0.728 in data set [1] (pH 6); -1.07 in data set [1] (pH 6, modulator: ogerin); -1.46 in data set [1] (pH 6.5, modulator: ogerin). Moreover, in data set [2], the surface expression score was found to be 0.003.

In the case of L209S, the cAMP reporter score in data set [1] (pH 5.5) is -0.944; in data set [1] (pH 6) it was -1.58; in data set [1] (pH 6, modulator: ogerin), -0.784; in data set [1] (pH 6.5, modulator: ogerin), -1.66. The surface expression score in data set [2] turned out to be 0.07.

Turning to L209P, the cAMP reporter score in data set [1] (pH 5.5) was -1.33; in data set [1] (pH 6), -1.72; in data set [1] (pH 6, modulator: ogerin), -2.02; in data set [1] (pH 6.5, modulator: ogerin) it was -1.84. Further, in data set [2], the surface expression score was -1.57.

Take L209N: the cAMP reporter score in data set [1] (pH 5.5) was -0.022; in data set [1] (pH 6), -0.97; in data set [1] (pH 6, modulator: ogerin) it was -0.14; in data set [1] (pH 6.5, modulator: ogerin), -0.375. In addition, the surface expression score in data set [2] is 1.11.

Turning to A211del, the cAMP reporter score in data set [1] (pH 5.5) was -1.49; in data set [1] (pH 6), -0.07; in data set [1] (pH 6, modulator: ogerin) it was -1.15; in data set [1] (pH 6.5, modulator: ogerin), -0.937. Also, in data set [2], the surface expression score came to 0.22.

As for V212A, the cAMP reporter score in data set [1] (pH 5.5) is -0.956; in data set [1] (pH 6), -0.718; in data set [1] (pH 6, modulator: ogerin), -1.28; in data set [1] (pH 6.5, modulator: ogerin), -1.23. Besides, the surface expression score in data set [2] turned out to be 0.822.

As for V212H, the cAMP reporter score in data set [1] (pH 5.5) is -0.975; in data set [1] (pH 6) it was -0.467; in data set [1] (pH 6, modulator: ogerin), -1.43; in data set [1] (pH 6.5, modulator: ogerin) it was -0.98. Besides, the surface expression score in data set [2] was found to be 0.471.

As for V212T, the cAMP reporter score in data set [1] (pH 5.5) is -0.64; in data set [1] (pH 6) it was -0.591; in data set [1] (pH 6, modulator: ogerin), -1.03; in data set [1] (pH 6.5, modulator: ogerin) it was -0.766. Moreover, the surface expression score in data set [2] was determined as 1.04.

As to V212Y, the cAMP reporter score in data set [1] (pH 5.5) is -1.78; in data set [1] (pH 6), -1.49; in data set [1] (pH 6, modulator: ogerin) it was -1.69; in data set [1] (pH 6.5, modulator: ogerin), -1.68. In data set [2], the surface expression score was found to be 0.097.

For V212F, the cAMP reporter score in data set [1] (pH 5.5) was -1.94; in data set [1] (pH 6), -1.18; in data set [1] (pH 6, modulator: ogerin), -1.54; in data set [1] (pH 6.5, modulator: ogerin), -1.36. For the same variant, the surface expression score in data set [2] stood at 0.644.

V212D: the cAMP reporter score was -1.17 in data set [1] (pH 5.5); -1.23 in data set [1] (pH 6); -1.48 in data set [1] (pH 6, modulator: ogerin); -1.42 in data set [1] (pH 6.5, modulator: ogerin). In data set [2], the surface expression score came to 0.374.

In the case of V212L, the cAMP reporter score in data set [1] (pH 5.5) was -1.24; in data set [1] (pH 6), -1.18; in data set [1] (pH 6, modulator: ogerin), -1.07; in data set [1] (pH 6.5, modulator: ogerin), -1.34. Also, in data set [2], the surface expression score turned out to be 1.04.

On to V212G, for which the cAMP reporter score in data set [1] (pH 5.5) is -1.92; in data set [1] (pH 6) it was -1.46; in data set [1] (pH 6, modulator: ogerin), -2.73; in data set [1] (pH 6.5, modulator: ogerin), -2.33. In data set [2], the surface expression score is 0.228.

For V212W, the cAMP reporter score in data set [1] (pH 5.5) was -1.33; in data set [1] (pH 6), -1.52; in data set [1] (pH 6, modulator: ogerin), -1.13; in data set [1] (pH 6.5, modulator: ogerin), -1.42. Besides, in data set [2], the surface expression score is -0.795.

Turning to V212P, the cAMP reporter score was -1.21 in data set [1] (pH 5.5); -1.98 in data set [1] (pH 6); -1.75 in data set [1] (pH 6, modulator: ogerin); -1.23 in data set [1] (pH 6.5, modulator: ogerin). In data set [2], the surface expression score was determined as 0.027.

In the case of V212K, the cAMP reporter score in data set [1] (pH 5.5) is -1.42; in data set [1] (pH 6), -1.75; in data set [1] (pH 6, modulator: ogerin) it was -1.73; in data set [1] (pH 6.5, modulator: ogerin), -1.01. Moreover, the surface expression score in data set [2] is -0.577.

On to V212E, for which the cAMP reporter score in data set [1] (pH 5.5) was -0.416; in data set [1] (pH 6), -0.678; in data set [1] (pH 6, modulator: ogerin) it was -1.62; in data set [1] (pH 6.5, modulator: ogerin), -0.695. Further, the surface expression score in data set [2] turned out to be 1.

Consider V212C, for which the cAMP reporter score is -1.6 in data set [1] (pH 5.5); -1.23 in data set [1] (pH 6); -1.48 in data set [1] (pH 6, modulator: ogerin); -1.19 in data set [1] (pH 6.5, modulator: ogerin). The surface expression score in data set [2] amounted to 0.549.

As to V212I, the cAMP reporter score was -0.485 in data set [1] (pH 5.5); -0.411 in data set [1] (pH 6); -0.497 in data set [1] (pH 6, modulator: ogerin); -0.52 in data set [1] (pH 6.5, modulator: ogerin). Also, in data set [2], the surface expression score was -0.414.

As to V212Q, the cAMP reporter score in data set [1] (pH 5.5) is -1.54; in data set [1] (pH 6), -0.971; in data set [1] (pH 6, modulator: ogerin), -1.86; in data set [1] (pH 6.5, modulator: ogerin), -0.799. Further, the surface expression score in data set [2] amounted to 2.

For V212N, the cAMP reporter score in data set [1] (pH 5.5) was -1.74; in data set [1] (pH 6, modulator: ogerin) it was -1.26; in data set [1] (pH 6.5, modulator: ogerin), -1.69. For the same variant, the surface expression score in data set [2] was determined as 0.04.

As to V212R, the cAMP reporter score in data set [1] (pH 5.5) was -0.641; in data set [1] (pH 6), -1.25; in data set [1] (pH 6, modulator: ogerin), -0.825. Also, in data set [2], the surface expression score was 0.912.

As to V212S, the cAMP reporter score in data set [1] (pH 5.5) was -1.44; in data set [1] (pH 6), -0.448; in data set [1] (pH 6, modulator: ogerin), -1.56; in data set [1] (pH 6.5, modulator: ogerin) it was -1.14. Further, in data set [2], the surface expression score was 0.128.

Turning to V212M, the cAMP reporter score in data set [1] (pH 5.5) is -0.525; in data set [1] (pH 6), -1.82; in data set [1] (pH 6, modulator: ogerin), -1.6; in data set [1] (pH 6.5, modulator: ogerin), -0.776. In addition, in data set [2], the surface expression score is 0.608.

With V212_R213insGS, the cAMP reporter score in data set [1] (pH 5.5) is -0.618; in data set [1] (pH 6), -1.97; in data set [1] (pH 6, modulator: ogerin), -1.52; in data set [1] (pH 6.5, modulator: ogerin) it was -1.36. For the same variant, in data set [2], the surface expression score was -0.509.

Take L209_R210insGS: the cAMP reporter score in data set [1] (pH 5.5) is -1.57; in data set [1] (pH 6), -0.772; in data set [1] (pH 6, modulator: ogerin) it was -1.81; in data set [1] (pH 6.5, modulator: ogerin), -0.734. In addition, in data set [2], the surface expression score was -0.03.

Turning to R210_A211insG, the cAMP reporter score in data set [1] (pH 5.5) is -2.04; in data set [1] (pH 6), -0.576; in data set [1] (pH 6, modulator: ogerin), -3.24; in data set [1] (pH 6.5, modulator: ogerin) it was -0.746. In data set [2], the surface expression score was -0.398.

The values above are taken from the GPR68 mutational scans of Howard et al. (2025).
